# Reference: PubChem BioAssay AID686978 (National Center for Advancing Translational Sciences (NCATS), 2013)
# Where “and” joins values, the source holds several entries; their conditions need not be identical. Equal entries are not always repeated. The campaign covered roughly 420,000 compounds. About 64,000 (15%) were called active. The shares of active, inactive and inconclusive entries below differ from those in the screen. Calls come from the whole dose curve; as a rule, active = well fitted inhibition curve with a large enough effect; inconclusive = small, poorly fitted or top-dose-only effect; inactive = flat fitted curve, though single readings scatter. Potencies of inconclusive entries are doubtful fits and often do not repeat.
# Assay: qHTS for Inhibitors of human tyrosyl-DNA phosphodiesterase 1 (TDP1): qHTS in cells in absence of CPT; note: nearly all actives have a fitted effect of over 55% in size
# Details: DT40 Tdp1-/- hTDP1 cells, no CPT, ATP luminescence, 48 h; activity change, negative = growth inhibition: at 46.2 µM (top of the series)
# Procedure, shortened: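 Chicken DT40 Tdp1-/- cells complemented with human TDP1, screened without camptothecin (DMSO vehicle only), 400 cells/well. Compounds pin-transferred, cells incubated at 37 °C for at least 48 hr. Growth read as ATP-dependent luminescence (CellTiter-Glo, 30 min at RT).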
# % is set by controls: 0 for no effect and ±100 for the full control effect; potency is the fitted concentration of half-maximal effect; tags give direction and shape of the fitted curve.
SMILES,Potency,"activity change, negative = growth inhibition"
Cc1cc(NC(=O)CCCC(=O)Nc2ccc(F)cc2)no1,inactive,–
CCOc1ccc(S(=O)(=O)N2CCC(C(=O)NC3CCCCC3)CC2)cc1,"inconclusive: 7.31 µM [inhibitor, partial curve]",–
CC(=O)c1ccc(N=C2SCCCN2C(=O)C2CCCCC2)cc1,"inconclusive: 23.1 µM [inhibitor, single point]",–
Cc1ccc(Nc2nnc(SCC(=O)Nc3ncc(C(F)(F)F)cc3Cl)s2)cc1,inactive,–
Cc1nn(C2CCS(=O)(=O)C2)c(C)c1C=O (stereo unspecified),active: 20.6 µM,–
O=C(Nc1cc([N+](=O)[O-])ccc1O)c1cccc(NC(=O)c2ccco2)c1,inactive,–
CC(c1ccccn1)N(C)C(=O)c1ccc2nc(Cc3ccccc3F)oc2c1 (stereo unspecified),"inconclusive: 5.17 µM [inhibitor, full curve, poor fit]",–
CCN(CC)C(=S)NC(=O)c1ccc(OC)c(Br)c1,"inconclusive: 29.1 µM [inhibitor, single point]",–
CCOCCc1nn2c(=O)cc(COC(=O)c3ccc(NC(=O)C(C)(C)C)cc3)nc2s1,active: 13 µM,–
CCOC1=C2[C@@H](CN(S(=O)(=O)c3ccc(C)cc3)[C@H]2c2cccc3ccccc23)[C@H]2C(=O)N(C3CCCCC3)C(=O)[C@H]2C1,active: 10.3 µM,–
COCCNC(=O)c1cc(-c2cccs2)on1,active: 23.1 µM,–
Nc1nc(Sc2ccc([N+](=O)[O-])c3nonc23)c2[nH]cnc2n1,active: 3.26 µM,–
COc1ccc(NS(=O)(=O)c2ccc(C(=O)N3CCN(c4ccc(F)cc4)CC3)cc2)cc1,active: 4.61 µM,–
O=C(Nc1ccc(F)c(Cl)c1)c1ccccc1NC(=O)C1CCCCC1C(=O)O (stereo unspecified),"inconclusive: 11.6 µM [inhibitor, partial curve]",–
CCOC(=O)c1ccc(NC(=O)N(CC)CC)cc1,"inconclusive: 14.6 µM [inhibitor, partial curve]",–
Cc1ccc2c(C)c(C(=O)N3CCN(Cc4ccc5c(c4)OCO5)CC3)oc2c1C,"inconclusive: 18.4 µM [inhibitor, single point]",–
COC(=O)[C@@H]1C[C@@]2(O)[C@@H](O)[C@@H](O)[C@@H](O)C[C@H]2N1C/C=C/c1ccccc1,inactive,–
CS(=O)(=O)Nc1cccc(NC(=O)c2cccc3c(-c4ccc(F)c(F)c4)coc23)c1,"inconclusive: 5.17 µM [inhibitor, full curve, poor fit]",–
CC(C)C[C@H]1CNC(=S)N1CC1CCN(CCCC2CCCC2)CC1,"inconclusive: 29.1 µM [inhibitor, single point]",–
O=C(c1ccccc1)C1CCN(C(=O)c2c(F)cccc2F)CC1,inactive,–
Cc1cc2oc(C(=O)N(Cc3ccco3)Cc3ccccc3Cl)c(C)c2cc1C,active: 14.6 µM,–
O=C1c2ccccc2C(=O)c2c(NCc3cccnc3)cccc21,"inconclusive: 14.6 µM [inhibitor, partial curve]",–
O=C(CS(=O)(=O)c1ccc(F)cc1)N1CCN(c2ccccc2)CC1,inactive,–
COc1ccc(C=NNC(=S)NC23CC4CC(CC(C4)C2)C3)cc1OC,"inconclusive: 20.6 µM [inhibitor, single point]",–

SMILES,Potency,"activity change, negative = growth inhibition"
CCOC(=O)c1ccccc1NC(=O)CN(c1cccc(OC)c1)S(C)(=O)=O,"inconclusive: 29.1 µM [inhibitor, single point]",–
CCOC(=O)C1=CCN(S(=O)(=O)c2ccccc2C)C1c1cccc(Cl)c1 (stereo unspecified),"inconclusive: 29.1 µM [inhibitor, single point]",–
Cc1ccc(SCC(=O)Nc2ccc3oc(-c4ccccc4F)nc3c2)cc1,"inconclusive: 29.1 µM [inhibitor, single point]",–
CCOC(=O)c1sc(NC(=O)CC)c(C#N)c1C,inactive,–
COc1ccc(CCNC(=O)c2sc3cc(C)ccc3c2Cl)cc1,"inconclusive: 29.1 µM [inhibitor, single point]",–
CCOC(=O)c1ccccc1NC(=O)c1cnc(N2CCOCC2)c2ccccc12,active: 16.4 µM,–
Cc1cccc(NC(=O)[C@H](Cc2c[nH]c3ccccc23)NC(=O)[C@@H]2Cc3ccccc3CN2)c1,"inconclusive: 23.1 µM [inhibitor, single point]",–
CC(C(=O)NCc1ccccc1)n1c(-c2ccc3c(c2)CCO3)nc2ccccc21 (stereo unspecified),"inconclusive: 29.1 µM [inhibitor, single point]",–
CN(C)CCN(C(=O)c1cccc(Cl)c1)c1nc2c(Cl)cccc2s1,"inconclusive: 16.4 µM [inhibitor, single point]",–
COc1ccccc1CNC(=O)C(CC(C)C)NC(=O)C1CCC(C)CC1 (stereo unspecified),"inconclusive: 23.1 µM [inhibitor, single point]",–
CCCc1ccc(S(=O)(=O)N2CCN(Cc3ccco3)CC2)cc1,"inconclusive: 29.1 µM [inhibitor, single point]",–
Cc1ccc(S(=O)(=O)N2CCN(C(=O)CCC(=O)Nc3ccc(F)cc3F)CC2)cc1,inactive,–
O=C1/C(=C\c2cc(Br)cc(Br)c2O)SC(=S)N1Cc1ccccc1,active: 14.6 µM,–
COc1ccc(S(=O)(=O)Nc2ccccc2C)cc1,"inconclusive: 29.1 µM [inhibitor, single point]",–
COc1ccc(CNC(=O)Cn2c(-c3ccccc3)cc(C(C)=O)c2C)cc1OC,"inconclusive: 16.4 µM [inhibitor, single point]",–
COc1ccc(CSc2nnc(C)n2N)cc1Br,"inconclusive: 0.231 µM [inhibitor, full curve, poor fit]",–
O=C(CNC(=O)Cc1ccccc1)N=Nc1c(O)[nH]c2ccc(Br)cc12,inactive,–
O=C(NCC1CC1)c1cc2c(c(-c3cccc(-c4ccccc4F)c3)n1)[C@H](CCO)N(C(=O)CC1CC1)C2,active: 18.4 µM,–
COc1ccc(OC)c(NC(=O)c2cc3c(cc2Cl)N2CCCCCC2=NS3(=O)=O)c1,active: 16.4 µM,–
COC(=O)c1cn(NC(=O)c2cc([N+](=O)[O-])ccc2F)c(=O)c2ccccc12,active: 4.61 µM,–
CC12CC(c3ccccc3O1)N(C(=O)c1ccco1)C(=S)N2c1ccc(F)cc1 (stereo unspecified),"inconclusive: 29.1 µM [inhibitor, single point]",–
COc1ccc(N2CC(NC(=O)/C=C\c3ccccc3)CC2=O)cc1OC (stereo unspecified),inactive,–
Cc1nn(C)c(C)c1CCNC(=O)Nc1ccccc1C(F)(F)F,inactive,–
O=C(CCc1ccccc1)NC1CCS(=O)(=O)C1 (stereo unspecified),inactive,–

SMILES,Potency,"activity change, negative = growth inhibition"
CCOC(=O)c1nn(-c2ccc(OC)cc2)c(=O)c2c(N)scc12,inactive,–
CCN(CC)CCNC(=O)c1cc(S(=O)(=O)N2CCc3ccccc32)cn1C,inactive,–
Cc1ccc(S(=O)(=O)CCN2CCN(c3ccccc3)CC2)cc1,inactive,–
CC(=O)Nc1ccc(Sc2ncccc2C(=O)Nc2ccc(F)cc2)cn1,active: 7.31 µM,–
Cc1cc(C)c2c(n1)SCC(=O)N2CC(=O)Nc1cccc(Cl)c1,inactive,–
CN(Cc1ccccc1)C(=O)c1ccc(NC(=O)Cc2ccc(NC(=O)C3CCCN(C(=O)C4CCCCC4)C3)cc2)cc1 (stereo unspecified),"inconclusive: 23.1 µM [inhibitor, single point]",–
Cc1nc(N2CCN(C(=O)c3cnccn3)CC2)c2c3c(sc2n1)CC(C(C)(C)C)CC3 (stereo unspecified),inactive,–
Cc1ccc(S(=O)(=O)N2CCCCC2)cc1NC(=O)COc1ccccc1,"inconclusive: 29.1 µM [inhibitor, single point]",–
CC1=C(C(=O)N(C(C)C)C(C)C)CC(CC(=O)NCCc2ccccn2)C(=O)N1Cc1ccc(C(C)(C)C)cc1 (stereo unspecified),"inconclusive: 29.1 µM [inhibitor, single point]",–
Cc1ccc2c(c1)C(c1ccccc1)N(C(=O)c1ccc(S(=O)(=O)N3CCOCC3)cc1)CC(=O)N2 (stereo unspecified),"inconclusive: 20.6 µM [inhibitor, single point]",–
CN(Cc1ccco1)S(=O)(=O)c1nnc(NC(=O)c2ccccc2Cl)s1,"inactive and inconclusive: 23.1 µM [inhibitor, single point]",–
CCc1nc2ccc(C(=O)NCCOc3ccc(OC)cc3)cn2c1N(C=O)Cc1ccc(OC)cc1,"inconclusive: 16.4 µM [inhibitor, single point]",–
CCCc1cc(Nc2ccc(C)cc2)n2ncnc2n1,"inconclusive: 5.8 µM [inhibitor, partial curve]",–
CN(C)CC(C)(C)CNS(=O)(=O)c1ccc(Cl)s1,inactive,–
CSc1nc2cc(Oc3cccc(Cl)c3Cl)c(Cl)cc2[nH]1,"inconclusive: 23.7 µM [inhibitor, single point] and inconclusive: 16.4 µM [inhibitor, single point]",–
C/C(=N\NC(=O)c1cccc(S(=O)(=O)Nc2ccccc2Cl)c1)c1ccc(-n2ccnc2)cc1,"inconclusive: 13 µM [inhibitor, partial curve]",–
Cc1cccc(N(CC(=O)NC(C)C)C(=O)c2ccc(N3CCCC3)nc2)c1,inactive,–
NCCNC[C@@H]1COC2(CCCCCCCCCCC2)O1,active: 23.1 µM,–
Cc1nc(CSc2n[nH]c(=O)n2-c2cccc(F)c2)cs1,inactive,–
COc1cc(Cl)c(C)cc1Nc1nc2ccccc2n2cnnc12,"inconclusive: 6.51 µM [inhibitor, single point]",–
Cc1cc(/C=N/n2cnnc2)c(C)n1-c1ccc(OCc2ccccc2F)cc1,active: 13 µM,–
CCOC(=O)c1ccc(NC(=S)NCCc2ccc(F)cc2)cc1,"inconclusive: 29.1 µM [inhibitor, single point]",–
CCCCc1c(C)nc2cc(-c3ccco3)[nH]n2c1=O,–,inconclusive: -34.5% [inhibitor]
